The labels stand for the following.
B1: UCACGCA (DNA:RNA)
RNA: GGGAGACCGGAAUUCAGAUUGUCCUCACGCAUUAAAUCCCGUCGUAGCCACCA
DNA 1: CAATCTGAATTCCGGTCTCCC
DNA 2: TGGTGGCTACGACGGGATT
B2: AGCGUUC (DNA:RNA)
RNA: GGGAGACCGGAAUUCAGAUUGUCCAGCGUUCUUAAAUCCCGUCGUAGCCACCA
DNA 1: CAATCTGAATTCCGGTCTCCC
DNA 2: TGGTGGCTACGACGGGATT
B3: CGGGGAA (DNA:RNA)
RNA: B2 RNA with A25C, C27G, U29G, U30A, C31A
DNA 1: CAATCTGAATTCCGGTCTCCC
DNA 2: TGGTGGCTACGACGGGATT
B4: UCCUCUC (DNA:RNA)
RNA: B2 RNA with A25U, G26C, G28U, U29C
DNA 1: CAATCTGAATTCCGGTCTCCC
DNA 2: TGGTGGCTACGACGGGATT
B5: GUCGGUU (DNA:RNA)
RNA: B2 RNA with A25G, G26U, U29G, C31U
DNA 1: CAATCTGAATTCCGGTCTCCC
DNA 2: TGGTGGCTACGACGGGATT
B6: UAAGAUC (DNA:RNA)
RNA: B2 RNA with A25U, G26A, C27A, U29A
DNA 1: CAATCTGAATTCCGGTCTCCC
DNA 2: TGGTGGCTACGACGGGATT
B7: UCAUGAU (DNA:RNA)
RNA: B1 RNA with C28U, C30A, A31U
DNA 1: CAATCTGAATTCCGGTCTCCC
DNA 2: TGGTGGCTACGACGGGATT
B8: UCCAUUC (DNA:RNA)
RNA: B2 RNA with A25U, G26C, G28A
DNA 1: CAATCTGAATTCCGGTCTCCC
DNA 2: TGGTGGCTACGACGGGATT
B9: UAUGGCU (DNA:RNA)
RNA: B1 RNA with C26A, A27U, C28G, A31U
DNA 1: CAATCTGAATTCCGGTCTCCC
DNA 2: TGGTGGCTACGACGGGATT
B10: CUCUGUA (DNA:RNA)
RNA: B2 RNA with A25C, G26U, G28U, U29G, C31A
DNA 1: CAATCTGAATTCCGGTCTCCC
DNA 2: TGGTGGCTACGACGGGATT
B11: GGCCGGG (DNA:RNA)
RNA: B2 RNA with A25G, G28C, U29G, U30G, C31G
DNA 1: CAATCTGAATTCCGGTCTCCC
DNA 2: TGGTGGCTACGACGGGATT
B12: CACUUCC (DNA:RNA)
RNA: B2 RNA with A25C, G26A, G28U, U30C
DNA 1: CAATCTGAATTCCGGTCTCCC
DNA 2: TGGTGGCTACGACGGGATT
B13: UGUCAGG (DNA:RNA)
RNA: B1 RNA with C26G, A27U, G29A, C30G, A31G
DNA 1: CAATCTGAATTCCGGTCTCCC
DNA 2: TGGTGGCTACGACGGGATT
B14: UGUCGAU (DNA:RNA)
RNA: B1 RNA with C26G, A27U, C30A, A31U
DNA 1: CAATCTGAATTCCGGTCTCCC
DNA 2: TGGTGGCTACGACGGGATT
B15: AUCAGUC (DNA:RNA)
RNA: B2 RNA with G26U, G28A, U29G
DNA 1: CAATCTGAATTCCGGTCTCCC
DNA 2: TGGTGGCTACGACGGGATT
B16: UGGGAUA (DNA:RNA)
RNA: B2 RNA with A25U, C27G, U29A, C31A
DNA 1: CAATCTGAATTCCGGTCTCCC
DNA 2: TGGTGGCTACGACGGGATT
B17: UGUCUGU (DNA:RNA)
RNA: B2 RNA with A25U, C27U, G28C, U30G, C31U
DNA 1: CAATCTGAATTCCGGTCTCCC
DNA 2: TGGTGGCTACGACGGGATT
B18: UCUCCAA (DNA:RNA)
RNA: B1 RNA with A27U, G29C, C30A
DNA 1: CAATCTGAATTCCGGTCTCCC
DNA 2: TGGTGGCTACGACGGGATT
B19: UCGACUU (DNA:RNA)
RNA: B1 RNA with A27G, C28A, G29C, C30U, A31U
DNA 1: CAATCTGAATTCCGGTCTCCC
DNA 2: TGGTGGCTACGACGGGATT
B20: ACAGGCC (DNA:RNA)
RNA: B1 RNA with U25A, C28G, A31C
DNA 1: CAATCTGAATTCCGGTCTCCC
DNA 2: TGGTGGCTACGACGGGATT
B21: GGAUAGG (DNA:RNA)
RNA: B2 RNA with A25G, C27A, G28U, U29A, U30G, C31G
DNA 1: CAATCTGAATTCCGGTCTCCC
DNA 2: TGGTGGCTACGACGGGATT
B22: UGCCGUU (DNA:RNA)
RNA: B2 RNA with A25U, G28C, U29G, C31U
DNA 1: CAATCTGAATTCCGGTCTCCC
DNA 2: TGGTGGCTACGACGGGATT
B23: GCUAGAG (DNA:RNA)
RNA: B1 RNA with U25G, A27U, C28A, C30A, A31G
DNA 1: CAATCTGAATTCCGGTCTCCC
DNA 2: TGGTGGCTACGACGGGATT
B24: CGGCAGA (DNA:RNA)
RNA: B1 RNA with U25C, C26G, A27G, G29A, C30G
DNA 1: CAATCTGAATTCCGGTCTCCC
DNA 2: TGGTGGCTACGACGGGATT
B25: AUCAUUC (DNA:RNA)
RNA: B2 RNA with G26U, G28A
DNA 1: CAATCTGAATTCCGGTCTCCC
DNA 2: TGGTGGCTACGACGGGATT
B26: CGCAGCG (DNA:RNA)
RNA: B2 RNA with A25C, G28A, U29G, U30C, C31G
DNA 1: CAATCTGAATTCCGGTCTCCC
DNA 2: TGGTGGCTACGACGGGATT
B27: AGGGUGG (DNA:RNA)
RNA: B2 RNA with C27G, U30G, C31G
DNA 1: CAATCTGAATTCCGGTCTCCC
DNA 2: TGGTGGCTACGACGGGATT
B28: GGCGUUU (DNA:RNA)
RNA: B2 RNA with A25G, C31U
DNA 1: CAATCTGAATTCCGGTCTCCC
DNA 2: TGGTGGCTACGACGGGATT
B29: CGUUUUU (DNA:RNA)
RNA: B2 RNA with A25C, C27U, G28U, C31U
DNA 1: CAATCTGAATTCCGGTCTCCC
DNA 2: TGGTGGCTACGACGGGATT
B30: UCUUAAU (DNA:RNA)
RNA: B1 RNA with A27U, C28U, G29A, C30A, A31U
DNA 1: CAATCTGAATTCCGGTCTCCC
DNA 2: TGGTGGCTACGACGGGATT
B31: AAGAAUC (DNA:RNA)
RNA: B2 RNA with G26A, C27G, G28A, U29A
DNA 1: CAATCTGAATTCCGGTCTCCC
DNA 2: TGGTGGCTACGACGGGATT

Where a chain is given by its changes, count along the chain named. This is one part of the list.

The experiment addresses T1, RBFOX1 RRM RbFoxmut (Fox-RRM*) (Homo sapiens, UniProt Q9NWB1 109-208, R118D;E147R;N151S;E152T).
T1 sequence: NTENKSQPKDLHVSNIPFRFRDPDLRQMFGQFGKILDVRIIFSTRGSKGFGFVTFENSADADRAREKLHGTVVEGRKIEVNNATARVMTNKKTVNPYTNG
Nature of the experiment: EMSA; HiTS-Eq, 1 nM pool, 10 min; buffer printed only for the single-RNA assays: 10 mM Tris pH 7.5, 150 mM NaCl, 3.4 mM EDTA, 0.001% NP-40, 30 C. Conditions: tags: His6 N-terminal (pET28a); label: 5' 32P. A digest of the protocol: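 These values rest on relative association constants, computed from read-count changes of each RNA species versus the control reaction and normalised to the cognate motif. Reads came from free RNA recovered by 8% native PAGE after purified RbFox RRM (wild type or mutant) at increasing concentrations was equilibrated for 10 min in 50 µL with 1 nM of a 5′-radiolabelled pool with 7 randomized nucleotides and DNA-annealed flanks.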
In the case of B1, the binding signal was 0.135 KA relative to UGCAUGU.
Turning to B2, the binding signal is 0.0948 KA relative to UGCAUGU.
For the molecule B3, the binding signal was 0.107 KA relative to UGCAUGU.
Then B4, with 0.0516 KA relative to UGCAUGU.
For B5, the binding signal is 0.0998 KA relative to UGCAUGU.
For B6, the binding signal was 0.0478 KA relative to UGCAUGU.
Then B7, with 0.0721 KA relative to UGCAUGU; and B8, with 0.0723 KA relative to UGCAUGU; and B9, with 0.102 KA relative to UGCAUGU.
Then B10, with 0.229 KA relative to UGCAUGU; and B11, with 0.0661 KA relative to UGCAUGU.
As to B12, the binding signal was 0.0925 KA relative to UGCAUGU.
For B13, the binding signal is 0.0783 KA relative to UGCAUGU.
Then B14, with 0.0789 KA relative to UGCAUGU; and B15, with 0.0931 KA relative to UGCAUGU.
Consider B16, for which the binding signal is 0.144 KA relative to UGCAUGU.
For B17 the value was 0.164 KA relative to UGCAUGU; for B18, 0.0797 KA relative to UGCAUGU; for B19, 0.0543 KA relative to UGCAUGU.
Then B20, with 0.18 KA relative to UGCAUGU; and B21, with 0.0913 KA relative to UGCAUGU.
Then B22, with 0.113 KA relative to UGCAUGU.
For B23, the binding signal was 0.101 KA relative to UGCAUGU.
Then B24, with 0.0836 KA relative to UGCAUGU; and B25, with 0.0825 KA relative to UGCAUGU; and B26, with 0.135 KA relative to UGCAUGU.
Take B27: the binding signal is 0.126 KA relative to UGCAUGU.
Then B28, with 0.0849 KA relative to UGCAUGU.
Then B29, with 0.103 KA relative to UGCAUGU.
Then B30, with 0.0912 KA relative to UGCAUGU; and B31, with 0.168 KA relative to UGCAUGU.
